Biological target: T1, glycocalicin (the proteolytic fragment of GPIb) (human, UniProt P07359 fragment)
T1 construct: domain: glycocalicin (the proteolytic fragment of GPIb); Purified from human platelets; coated on the SPR sensor
Assay: SPR, ligand perfused over glycocalicin-coated sensor, Langmuir one-to-one fit
From the text: The sensorgrams at different concentrations were obtained and normalized by subtracting background signals from the glycocalicin surface.

Kd: 36 nM
B1: A1 domain of von Willebrand factor (ligand)
chain: not shown
notes: domain: A1 domain; Printed once as 'AI domain of VWF' (a misprint of A1); also called VWF A1; AI domain of VWF

Reference: patent US20100184672A1 (published 2010)
